Data: PubChem BioAssay AID1347043 (National Center for Advancing Translational Sciences (NCATS), 2019)
The whole screen tested about 76,000 compounds, of which about 1,900 (2.5%) were called active. Inconclusive results, whose numbers are uncertain, are shown with a selection of clear calls. Calls follow the shape of the dose curve; as a rule, active = well fitted inhibition curve with a large enough effect; inconclusive = small, poorly fitted or top-dose-only effect; inactive = flat fitted curve, though single readings scatter. Potencies of inconclusive entries are doubtful fits and often do not repeat.

target: Luciferin 4-monooxygenase (Photinus pyralis) (UniProt P08659); test: Firefly luciferase inhibition profiling of diverse chemical library using quantitative high-throughput screening; also: nearly all actives have a fitted effect of over 65% in size; conditions: purified P. pyralis luciferase, luminescence, biochemical; series mostly up to 115 µM
Chain of UniProt P08659 (P08659 whole entry, looked up): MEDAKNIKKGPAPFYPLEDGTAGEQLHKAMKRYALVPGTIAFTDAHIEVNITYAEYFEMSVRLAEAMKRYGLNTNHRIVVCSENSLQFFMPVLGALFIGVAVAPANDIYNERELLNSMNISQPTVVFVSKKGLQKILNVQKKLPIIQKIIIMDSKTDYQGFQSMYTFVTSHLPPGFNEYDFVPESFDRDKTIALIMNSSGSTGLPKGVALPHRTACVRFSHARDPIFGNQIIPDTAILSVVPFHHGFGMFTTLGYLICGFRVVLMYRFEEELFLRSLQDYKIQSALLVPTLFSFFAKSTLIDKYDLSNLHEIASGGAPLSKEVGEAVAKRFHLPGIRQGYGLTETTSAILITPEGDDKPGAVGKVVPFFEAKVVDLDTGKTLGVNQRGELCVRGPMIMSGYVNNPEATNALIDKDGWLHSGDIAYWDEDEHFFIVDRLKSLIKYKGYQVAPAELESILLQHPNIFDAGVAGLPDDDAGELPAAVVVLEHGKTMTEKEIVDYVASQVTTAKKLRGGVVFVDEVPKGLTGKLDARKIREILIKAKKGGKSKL
Summary of the method: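 Luminescence read by CCD imaging after purified firefly luciferase (10nM final) was added to substrate buffer holding 10uM D-luciferin and 10uM ATP, pH 7.5, pre-dosed with compound.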
Potency is read from the fitted curve at half-maximal effect; tags tell the direction and shape of the fitted curve.

| Structure (SMILES) | Potency |
| --- | --- |
| CCOc1ccc(NC(=O)c2ccc3c(c2)N(C)C2CCCN2C3=O)cc1 (configuration not stated) | active: 44.7 µM |
| Cc1cc(-c2cc3c(cn2)CN(CC2CCOCC2)CCN3)ccn1 | inconclusive: 70.8 µM [inhibitor, partial curve] |
| CC1(CCCCN2CCOCC2)COc2ccc(C(=O)Nc3cccnc3)cc2N1 (configuration not stated) | inconclusive: 63.1 µM [inhibitor, partial curve] |
| COc1ccc(-c2ccc(C(=O)NC3CC(c4cc(=O)[nH]c(N)n4)C3)o2)cc1 (configuration not stated) | inconclusive: 39.8 µM [inhibitor, full curve, poor fit] |
| CC(=O)Nc1cccc(-c2ncc3c(n2)OCCN(CC2CC2)C3=O)c1 | active: 50.1 µM |
| COc1cccc(C(=O)NCCC2CCN(C(=O)Nc3ccc(C)c(F)c3)CC2)c1 | inconclusive: 14.1 µM [inhibitor, full curve] |
| O=C(NCCOc1ccccc1)c1cnc2c(c1)N(C(=O)Cc1ccc(O)cc1)CCC2 | inconclusive: 44.7 µM [inhibitor, partial curve] |
| Cc1cc(C(=O)N[C@H]2[C@H](O)[C@H](O)C[C@@H]2c2ccc(N3CCOCC3)nc2)n(C)n1 | inconclusive: 126 µM [inhibitor, single point] |
| O=C(Nc1ccc(F)cc1)N1CC[C@H]2CC(=O)N(c3ccccc3)CC[C@H]2C1 | inconclusive: 100 µM [inhibitor, partial curve, poor fit] |
| O=C(NCCCc1ccccc1)c1n[nH]c2c1CN(C(=O)c1ccccc1Cl)CC2 | inconclusive: 44.7 µM [inhibitor, partial curve] |
| CCC1(N2CCN(C(=O)c3ccc(Cl)cc3OC)CC2)CCN(C(=O)NC)C1 (configuration not stated) | inconclusive: 50.1 µM [inhibitor, partial curve] |
| Cc1noc(C)c1CN1CCc2nc(C(=O)Nc3ccccc3)oc2CC1 | active: 11.2 µM |
| COc1cccc(F)c1-c1ccc(COc2ccc3c(cnn3CCC(=O)O)c2)cc1 | active: 25.1 µM |
| CN1CCOc2nc(-c3ccc(Oc4ccccc4)cc3)ncc2C1=O | active: 4.47 µM |
| CCOc1ccc(NC(=O)C2CCN(C(=O)c3ncn4c3COC(c3ccc(F)cc3)C4)CC2)cc1 (configuration not stated) | inconclusive: 44.7 µM [inhibitor, partial curve] |
| O=C(NC[C@H]1Cn2c(-c3ccc(Cl)cc3)cnc2CO1)c1cccnc1 | inconclusive: 89.1 µM [inhibitor, partial curve] |
| Nc1cc(C(=O)N2CCc3onc(-c4ccc(-c5ccccc5)cc4)c3C2)[nH]n1 | inconclusive: 35.5 µM [inhibitor, partial curve] |
| CCCNC(=O)CCc1ccc2c(c1)CN(C(=O)NCC)CCO2 | inactive |
| CCC(=O)NCCC1CCN(C(=O)Nc2ccc(C)c(F)c2)CC1 | active: 11.2 µM |
| COC(=O)[C@@H]1Cc2c([nH]c3ccccc23)[C@H]2C[C@@H](NC(C)C)C[C@@H](c3ccccc3)N21 | inconclusive: 126 µM [inhibitor, single point] |
| Fc1cccc(-c2cnc(Nc3cccnc3)c3c2CCO3)c1 | inactive |
| COc1ccc(-c2noc([C@@H](C)NC(=O)C3CCCC3)c2C(=O)O)cc1 | inactive |
| CC1(C)[C@H](Cc2cc(CN3CCOCC3)on2)C[C@@H]1NC(=O)Nc1ccc(F)cc1 | inconclusive: 44.7 µM [inhibitor, partial curve] |

| Structure (SMILES) | Potency |
| --- | --- |
| COc1ccc2ccc(OCc3nc(C(=O)N(C)CC4CCCO4)co3)cc2c1 (configuration not stated) | inconclusive: 44.7 µM [inhibitor, partial curve, poor fit] |
| CN(C)CCNC(=O)[C@H]1C[C@@H](O)[C@H](O)[C@@H]2N=C(Nc3ccc(Cl)cc3)S[C@@H]21 | inconclusive: 100 µM [inhibitor, partial curve, poor fit] |
| COCCNC(=O)C[C@@H]1O[C@H](Cn2cc(CN(C)Cc3ccccc3)nn2)[C@@H](O)[C@H]1O | inactive |
| O=C(C1CC1)N1CCC2(CC1)NCCc1c2[nH]c2ccccc12 | inactive |
| COc1ccc(CC(=O)Nc2ccc([C@@H](O)[C@H]3COCC(=O)N3CC(C)C)cc2)cc1 | inactive |
| COc1cccc(-c2noc(COC(=O)C3=CN(C)S(=O)(=O)N=C3C)n2)c1 | inconclusive: 44.7 µM [inhibitor, partial curve] |
| O=C(Nc1ccc(OC(F)(F)F)cc1)c1cc(-c2ccc[nH]2)n[nH]1 | inconclusive: 11.2 µM [inhibitor, full curve] |
| COc1nc2nc(CCc3ccccc3)n(C)c2cc1Nc1ccncn1 | active: 50.1 µM |
| CSc1ccc(NC(=O)c2cc(-c3ccc[nH]3)n[nH]2)cc1 | active: 4.47 µM |
| Cc1ccc(NC(=O)C2CCN(C(=O)c3ncn4c3COC(c3ccc(F)cc3)C4)CC2)cc1C (configuration not stated) | active: 35.5 µM |
| O=C(Nc1ccccc1)N1CCOC(CN(CC2CC2)C(=O)c2cccc(F)c2)C1 (configuration not stated) | inconclusive: 56.2 µM [inhibitor, partial curve, poor fit] |
| CCn1ccnc1C1CCN(c2nc3ccccc3o2)CC1 | inconclusive: 89.1 µM [inhibitor, single point] |
| COc1ccc(Nc2ccc3c(n2)CN(Cc2nc4ccccc4s2)C(=O)CO3)cn1 | inconclusive: 79.4 µM [inhibitor, partial curve, poor fit] |
| COc1ccc(CNC(=O)c2cc3c(N4CCCC4)nc(C)cn3n2)c(OC)c1 | inactive |
| COc1cc(Cl)c(C)cc1NC(=O)Cn1cccc1-c1nc(-c2ccc3c(c2)OCO3)no1 | inactive |
| CCOc1ccc(CC(=O)N2CCC3(CC2)N=C(c2ccc(Cl)cc2)NO3)cc1 | inactive |
| COc1cccc(Nc2ncc(-c3ccccc3)c3c2OCC3)c1 | active: 14.1 µM |
| CN(C)c1ccc(C(=O)NCC2CCN(c3cc(-c4ccccc4)[nH]n3)CC2)cc1 | inconclusive: 39.8 µM [inhibitor, partial curve] |
| CSCC(=O)N[C@H]1CCN2C(=O)c3cc(-c4ccc(F)cc4F)ccc3NC(=O)[C@H]12 | inconclusive: 79.4 µM [inhibitor, partial curve] |
| O=c1cc(-c2cccnc2)oc2c(NCc3ccccc3)nccc12 | inconclusive: 63.1 µM [inhibitor, partial curve] |
| O=C(NCc1ccco1)c1cccc2c1CCN2C(=O)Nc1ccc(F)cc1 | active: 2.24 µM |
| CCOc1cccc(-c2noc(-c3nc(CC)no3)n2)c1 | inconclusive: 8.91 µM [inhibitor, full curve] |
| CC(C)C[C@@H]1N[C@H](C(=O)NCc2ccccc2)Cc2c[nH]c3cccc1c23 | inactive |

| Structure (SMILES) | Potency |
| --- | --- |
| CN1C[C@H](O)C[C@H]1c1nnc2n1CCN(C(=O)CCc1c[nH]c3ccccc13)CC2 | inactive |
| CN(C)C(=O)N1CCCC(CCc2c(F)cccc2F)C1 (configuration not stated) | inconclusive: 89.1 µM [inhibitor, partial curve, poor fit] |
| O=C(NCCOc1ccccc1)c1cnc2n1CCN(CC1CCOCC1)CC2 | inactive |
| CCC(CC)n1c(=O)n(Cc2ccc(C(=O)N(C)C)o2)c2cc(C(=O)O)cnc21 | inactive |
| Cc1ncsc1C(=O)N1CCC2(CC1)OC(=O)N(Cc1ccccc1)C2(C)c1cccnc1 (configuration not stated) | inactive |
| CN1c2cc(C(=O)Nc3cccc(Br)c3)ccc2C(=O)N2CCCCCC21 (configuration not stated) | inconclusive: 7.94 µM [inhibitor, full curve] |
| CN(C)c1ccc(CN2CC[C@H](c3nnc(-c4ccco4)o3)C2)cc1 | inconclusive: 126 µM [inhibitor, single point] |
| Fc1ccccc1-c1noc(-c2nc(Cc3ccccc3)no2)n1 | active: 20 µM |
| COc1ccc(-n2cc(CN3CCCC(CO)C3)c(-c3cccc(F)c3)n2)cc1 (configuration not stated) | inconclusive: 50.1 µM [inhibitor, partial curve] |
| COc1ccc(C(=O)N2CCCC(c3nc(-c4ccccc4)no3)CCNC(=O)CC2)cc1F (configuration not stated) | inconclusive: 50.1 µM [inhibitor, partial curve] |
| Cn1ccc2c(-c3cc(NCCO)nc(N)n3)ccnc21 | inconclusive: 35.5 µM [inhibitor, partial curve] |
| O=C(c1cc(Cl)ccc1F)N1CCC(n2cc(-c3nc(-c4ccccc4)no3)nn2)C1 (configuration not stated) | inconclusive: 89.1 µM [inhibitor, single point] |
| Cc1cc(=O)n(CC(=O)Nc2ccc(Br)cc2F)c(N2CCC(C)CC2)n1 | inactive |
| O=C(Nc1cnc(-c2ccccc2)nc1)c1cccc(F)c1 | inconclusive: 3.98 µM [inhibitor, full curve] |
| O=C(Cc1cccc(F)c1)N1CCC(Cc2nncn2-c2ccccc2)CC1 | inactive |
| COc1ccccc1CC(=O)N1CCC[C@H]1c1nc(-c2ccc(C)cc2)no1 | inconclusive: 50.1 µM [inhibitor, partial curve, poor fit] |
| CN(Cc1ccco1)C(=O)c1ccc(-c2ccc(N3CCCCCC3)nc2)cc1 | inconclusive: 44.7 µM [inhibitor, partial curve] |
| COc1cccc(CNC(=O)c2cc3c(=O)[nH]c(C)cn3n2)c1 | inconclusive: 56.2 µM [inhibitor, partial curve, poor fit] |
| CC(=O)c1cccc(NC(=O)c2cc3c(n2C)CCN(Cc2cccc(F)c2)C3)c1 | inconclusive: 44.7 µM [inhibitor, partial curve] |
| COc1ccc(CC(=O)N2CCc3c(nc4cc(-c5ccccc5Cl)[nH]n4c3=O)C2)cc1 | inconclusive: 39.8 µM [inhibitor, partial curve] |
| Cc1ccc(NC(=O)Nc2ccc(C)n(CC(=O)Nc3ccc(C)cc3C)c2=O)cc1 | inconclusive: 0.501 µM [inhibitor, full curve] |
